# Whole data set: some 33,000 sequences, median “E-score (-0.5 to 0.5)” near -0.017, cut for the highest 2% near 0.3. The list shows a part of the results.
# Target: T1, Sut1 (UniProt P53032)
# T1 sequence: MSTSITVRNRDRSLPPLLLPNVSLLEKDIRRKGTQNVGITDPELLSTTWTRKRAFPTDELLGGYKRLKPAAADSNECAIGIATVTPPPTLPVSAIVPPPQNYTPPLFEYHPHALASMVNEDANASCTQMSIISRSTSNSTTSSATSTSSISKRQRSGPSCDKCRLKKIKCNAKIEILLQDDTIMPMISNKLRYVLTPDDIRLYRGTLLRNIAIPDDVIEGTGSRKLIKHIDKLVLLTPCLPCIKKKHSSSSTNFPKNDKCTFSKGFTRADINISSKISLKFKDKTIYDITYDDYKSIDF
# Experiment: PBM E-score (8-mer binding enrichment) (E-score (-0.5 to 0.5)); higher = stronger / more preferred TF binding; most listed sequences are background and not binding sites
# Details: protein concentration: 200 nM; construct: GST-full length
# Summary of the method: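 For each ungapped eight-base word taken together with its reverse complement, the Universal PBM Analysis Suite assigned an E-score. Binding data came from GST-tagged yeast transcription factors, applied at about 100-200 nM, on universal all-10-mer Agilent arrays made double-stranded by primer extension. Fluorescent anti-GST marked bound protein, and scans were normalised with masliner.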
row,Sequence,PBM E-score
1,CAATTCTA,0.0644
2,ACCTGCAA,-0.165
3,CCCATGGA,-0.146
4,CATTGAAA,0.249
5,AAGCCGTA,0.0299
6,GTGGGTCA,-0.218
7,AAGGCATA,-0.0701
8,AAGGCAGT,0.0579
9,GATATCGC,0.047
10,ACGCATGG,-0.224
11,ACGTACGG,-0.154
12,AGACCGAA,0.15
13,GAATAGAA,0.229
14,CTGCTAAG,-0.0745
15,CGAGGGCA,-0.257
16,GCACACGA,-0.177
17,ATCGCTAA,0.00759
18,ACACAACG,0.0126
19,ATCGGTGC,-0.0848
20,AATCATTC,0.202
21,ACTAGACC,0.0632
22,AACTCGCC,0.00829
23,GGAGGCAC,-0.247
24,CACCTGTA,-0.17
25,ACTTACCG,0.222

row,Sequence,PBM E-score
1,ATACAAAG,0.119
2,GACAGAGC,-0.0868
3,AGAGGGTC,-0.143
4,AGGGAAAA,0.0188
5,AAAAAGGG,-0.0466
6,GCTACCCA,-0.178
7,AACTGGGA,-0.095
8,CTGCATTC,0.0297
9,AAGTCGTC,-0.133
10,CAACACAC,0.00259
11,TACCCCTA,-0.136
12,GGTCGGAC,0.259
13,CGCAAGCG,-0.256
14,AGCCGTTC,-0.0942
15,ATATCAAA,0.212
16,TAGATCTA,0.0822
17,AGTGTAGA,-0.106
18,CGCAGGGA,-0.229
19,CAGGCCTG,0.0399
20,ACTCGATG,0.0252
21,CCTCAGGA,-0.132
22,CCTTCTGA,0.112
23,ATCTAGAA,0.16
24,ACTCTTTC,0.111
25,ACTGGGTG,-0.266

row,Sequence,PBM E-score
1,GCTCGCAA,-0.101
2,AAAACCCA,0.151
3,CTTCGTAA,0.146
4,CCTAATAA,-0.0105
5,CATCTAGG,-0.0891
6,CCCCAAAA,-0.00242
7,ATATACGG,0.26
8,ATGATAAA,0.233
9,ATAAGCCC,-0.0621
10,GGATACGA,-0.134
11,TCTGTAAA,0.0742
12,ACCAAGGT,0.111
13,ACCATCCT,0.0495
14,CGCTGGGA,-0.192
15,AAATATCG,0.226
16,AGTGTTGG,0.0351
17,TAGGAAGA,-0.043
18,CGAGTACG,-0.191
19,CAACTACG,0.0309
20,GAGGCGCC,-0.112
21,CGTTGTTA,0.181
22,CACCCCAC,-0.0615
23,CGCACGCA,-0.0636
24,AGCTCGGA,0.336
25,GTATTTCA,0.191

row,Sequence,PBM E-score
1,CAGGGACA,-0.228
2,TATGCGGA,0.142
3,ACGGATTC,0.0978
4,AAGTCTCT,-0.167
5,AGACGGGC,-0.089
6,CAATGTGA,0.0926
7,GAGCTCAC,-0.207
8,ATCTACAG,0.0333
9,GCTGGCCA,-0.136
10,ACAGACAA,0.294
11,CCTACTTA,-0.0659
12,CACGGGCG,-0.294
13,CTAGGGTC,-0.225
14,AGTTGCTA,0.13
15,CAGACACA,-0.00031
16,ATCGGTAA,0.159
17,AGGCACAG,-0.0675
18,AGCCTTGA,0.0961
19,CGAGGCAA,0.0208
20,CGAATAAA,0.172
21,TCACTCGA,-0.0419
22,AACAGCGT,0.102
23,AATCAGCT,-0.0963
24,CAAACCCC,0.122
25,CGTGACGC,-0.121

row,Sequence,PBM E-score
1,GATAATGC,0.0761
2,ATTAACTG,0.239
3,GATCGGAA,0.159
4,GAATAAGC,0.0408
5,ACAAAGAA,0.186
6,TGCTAGAA,0.0342
7,CTGAGGCC,-0.104
8,GTCTCCTA,-0.156
9,AACGCCTT,0.0207
10,ATTTGGCC,-0.12
11,CAGCTCAA,0.0662
12,CGGCGTTA,-0.0139
13,ATCATAAT,0.243
14,CTCGGTTC,0.015
15,AGAGTGCT,0.0233
16,AAGTATTC,0.0806
17,ACAGCTCA,-0.0906
18,TACGTAGA,-0.0486
19,ATAGACAG,0.0775
20,CATTCCGC,0.0668
21,GGATATAC,0.197
22,AAATCACC,0.173
23,AATCCGCT,-0.0383
24,GTCAAAGA,0.0425
25,GCACAGGA,-0.207

row,Sequence,PBM E-score
1,AACTTGAA,0.157
2,CTTTCTGA,0.103
3,CGGCGTGA,-0.0279
4,AGGGTGCA,-0.23
5,CCTACCAA,0.088
6,CCCTGCGA,-0.293
7,CGTCGCAA,0.0231
8,CGTCGGCA,-0.202
9,AGCTGTAA,0.0568
10,CCGGTGCA,-0.0689
11,TATGGTCA,0.00542
12,CTCATATC,-0.0281
13,CCTTTGAG,-0.192
14,CCGGCAGG,-0.127
15,ATTCACGC,-0.112
16,ATGATGCC,-0.0758
17,AACCGGGC,-0.105
18,GAAGCCCA,-0.216
19,GATGTACC,-0.0304
20,GACTACGA,0.0667
21,AGTTATGG,0.115
22,CCCTTCAG,-0.155
23,ATCTCAGA,-0.13
24,CACCGATA,0.04
25,CACCTAAG,-0.0227

row,Sequence,PBM E-score
1,TATAAGGA,0.219
2,TAAGTAGA,0.162
3,GATAGACC,-0.125
4,CACCAGGC,-0.314
5,ATAAAAAC,0.216
6,CCTCCTAA,-0.0828
7,CAGTTTGC,-0.0406
8,CATAAAGG,0.125
9,CAGTCTCC,0.0248
10,ATTGAGCC,-0.00032
11,ACTGGACC,-0.112
12,ATCATGAA,0.0787
13,GAATGTGC,-0.115
14,AAGACATG,-0.19
15,CAGCGCAA,-0.155
16,GGCCCAAA,-0.141
17,CGGGCCAG,-0.142
18,CTTGGGGC,-0.245
19,CGTAAGCA,-0.164
20,AGATAAAC,0.156
21,CAGTCCAG,-0.325
22,AGCCTCTC,-0.217

# From the supplement of paper PMC3334620
